Residue numbers refer to the chain shown, from its start. “Also recorded” adds a separate entry of the source.
T1: soluble recombinant human CD39 protein (Homo sapiens, UniProt P49961)
T1 construct: made in house; host or cells: CHO cells
T1 sequence (P49961 with tags, fused parts or gaps): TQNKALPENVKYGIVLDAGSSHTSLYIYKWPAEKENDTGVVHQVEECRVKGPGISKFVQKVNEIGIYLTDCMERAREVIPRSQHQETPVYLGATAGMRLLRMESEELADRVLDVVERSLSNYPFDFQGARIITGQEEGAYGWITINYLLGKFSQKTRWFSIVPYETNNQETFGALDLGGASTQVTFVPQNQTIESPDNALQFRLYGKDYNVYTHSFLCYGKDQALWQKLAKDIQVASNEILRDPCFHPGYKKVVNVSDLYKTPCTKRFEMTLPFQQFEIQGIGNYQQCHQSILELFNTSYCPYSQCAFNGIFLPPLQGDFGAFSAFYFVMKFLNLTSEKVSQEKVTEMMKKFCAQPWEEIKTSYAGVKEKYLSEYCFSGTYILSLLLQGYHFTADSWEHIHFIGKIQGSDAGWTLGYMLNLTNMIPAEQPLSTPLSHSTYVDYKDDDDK

T2: cell-membrane bound CD39 (Homo sapiens, UniProt P49961)
T2 sequence (P49961 1-510): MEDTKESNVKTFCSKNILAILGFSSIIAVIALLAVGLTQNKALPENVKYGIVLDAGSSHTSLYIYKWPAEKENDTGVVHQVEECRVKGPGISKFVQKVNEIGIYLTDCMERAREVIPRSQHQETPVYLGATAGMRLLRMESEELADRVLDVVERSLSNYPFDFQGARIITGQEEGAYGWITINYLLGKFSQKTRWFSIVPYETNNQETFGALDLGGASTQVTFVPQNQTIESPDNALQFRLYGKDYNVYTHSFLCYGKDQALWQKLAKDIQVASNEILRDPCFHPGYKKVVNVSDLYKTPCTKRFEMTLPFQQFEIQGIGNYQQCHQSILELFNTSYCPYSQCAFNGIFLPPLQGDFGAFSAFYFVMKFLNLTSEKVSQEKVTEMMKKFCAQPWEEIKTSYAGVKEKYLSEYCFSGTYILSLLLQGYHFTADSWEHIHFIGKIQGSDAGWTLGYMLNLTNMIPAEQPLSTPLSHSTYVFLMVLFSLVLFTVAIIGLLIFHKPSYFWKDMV

T3: CD39 mutants (Table 1) expressed in Hek-293T cells (Homo sapiens, UniProt P49961, E142K/M139A/R138A)
T3 construct: expressed in transfected cells; host or cells: Hek-293T cells
T3 sequence (P49961 1-510 R138A/M139A/E142K): T2 sequence (P49961 1-510) with R138A, M139A, E142K

T4: CD39 mutants (Table 1) expressed in Hek-293T cells (Homo sapiens, UniProt P49961, E143A/N99A/Q96A/R147E)
T4 construct: expressed in transfected cells; host or cells: Hek-293T cells
T4 sequence (P49961 1-510 Q96A/N99A/E143A/R147E): T2 sequence (P49961 1-510) with Q96A, N99A, E143A, R147E

T5: CD39 mutants (Table 1) expressed in Hek-293T cells (Homo sapiens, UniProt P49961, D107A/E100A/K87A)
T5 construct: expressed in transfected cells; host or cells: Hek-293T cells
T5 sequence (P49961 1-510 K87A/E100A/D107A): T2 sequence (P49961 1-510) with K87A, E100A, D107A

B1: I-395: anti-CD39 antibody, VH SEQ ID NO: 11, VL SEQ ID NO: 12 (antibody, listed as Mus musculus, V domains shown)
VH: EVQLQQSGPELVKPGASVRMSCKASGYTFTDYNMHWVKKNHGKGLEWIGYINPNNGGTTYNQKFKGKATLTVNTSSKTAYMELRSLTSEDSAVYYCTRGGTRFASWGQGTLVTVSA
VL: NIVLTQSPASLAVSLGQRATISCRASESVDNYGISFMYWFQQKPGQPPKLLIYAASTQGSGVPARFSGSGSGTDFSLNIHPMEEDDTAMYFCQQSKEVPFTFGSGTKLEIK
B2: I-396: anti-CD39 antibody, VH SEQ ID NO: 19, VL SEQ ID NO: 20 (antibody, listed as Mus musculus, V domains shown)
VH: EVQLQQSGAELVKPGASVKLSCIVSGFNIKDTYINWVKQRPEQGLEWIGRIDPANGNTKYDPKFQGKATMTSDTSSNTAYLHLSSLTSDDSAVYYCARWGYDDEEADYFDSWGQGTTLTVSS
VL: B1 VL with N1D, Y38N, T57N, H80L, D85V, T87A, Q93H, F100W, S104G

Legend:
[1] = target: T1, soluble recombinant human CD39 protein; test: Inhibition of the enzymatic activity of soluble CD39 (Cell Titer Glo); format: biochemical; conditions: for relative potency for inhibition of soluble CD39 (FIG. 2B): ranking among I-394, I-395, I-396; for inhibition of the enzymatic (ATPase) activity of soluble CD39 protein: result in words
Description: The inhibition by antibodies of the enzymatic activity of soluble CD39 protein produced was evaluated using Cell Titer Glo™ (Promega, reference G7571) that allows assessment of ATP hydrolysis through use of a reagent that generates a luminescent signal proportional to the amount of ATP present. In this way, inhibition of the soluble-CD39-meidatd ATP hydrolysis can be assessed. Briefly, dose ranges of anti-CD39 antibodies from 100 μg/ml to 6×10^−3 μg/ml were incubated with 400 ng/ml of soluble recombinant human CD39 protein having the amino acid sequence described in the Methods section (SEQ ID NO: 39), for 1 h at 37° C. 20 μM ATP was added to the plates for 30 additional minutes at 37° C. before addition of CTG (Cell Titer Glo) reagent. Emitted light was quantified using an Enspire™ luminometer after a short incubation period of 5 min in the dark. Anti-CD39 antibody efficacy was determined by comparing emitted light in presence of antibody with ATP alone (maximal light emission) and ATP together with soluble CD39 protein (minimal light emission).

cell-membrane bound CD39 = target: T2, cell-membrane bound CD39; test: Inhibition of the enzymatic activity of cellular CD39 (cells not specified); format: cell-based; conditions: for inhibition of cell-membrane bound (cellular) CD39 ATPase activity: result in words
Description: The inhibition of the CD39 enzymatic activity in CD39-expressing cells by antibodies was evaluated using Cell Titer Glo™ (Promega, reference G7571) that allows assessment of ATP hydrolysis through use of a reagent that generates a luminescent signal proportional to the amount of ATP present. The assay was thus designed to permit assessment of the inhibition of ATP hydrolyzed by CD39 in the cell culture supernatant. Briefly, 5×10^4 Ramos human lymphoma cells, 5×10^3 human CD39-, cynomolgus CD39- and mouse CD39-expressing CHO cells, were incubated 1 hour at 37° C. with anti-CD39 antibodies from 30 μg/ml to 5×10^−4 μg/ml. Cells were then incubated with 20 μM ATP for 1 additional hour at 37° C. Plates were centrifuged for 2 min at 400 g and 50 μl cell supernatant are transferred in a luminescence microplate (white wells). 50 μl CellTiter-Glo® Reagent (CTG) was added to the supernatant and emitted light was quantified after a 5 min incubation in the dark using a Enspire™ luminometer. Anti-CD39 antibody efficacy was determined by comparing emitted light in presence of antibody with ATP alone (maximal light emission) and ATP together with cells (minimal light emission).
The two antibodies that have been reported to inhibit the ATPase activity of CD39 in cellular assays (BY40 and BY12) were assessed to determine whether are able to inhibit the ATPase activity of recombinant soluble CD39 protein. The inhibition by antibodies of the enzymatic activity of soluble CD39 protein produced as described above was evaluated using Cell Titer Glo™ (Promega, reference G7571). The inhibition by antibodies of the enzymatic activity of cellular CD39 protein was evaluated as indicated above.

[2] = target: T3, CD39 mutants (Table 1) expressed in Hek-293T cells; test: Epitope mapping: flow cytometry binding to CD39 mutants in Hek-293T cells; conditions: mutant 19: R138A, M139A, E142K
Description: (§1) CD39 mutants were generated by PCR. The sequences amplified were run on agarose gel and purified using the Macherey Nagel PCR Clean-Up Gel Extraction kit (reference 740609). The purified PCR products generated for each mutant were then ligated into an expression vector, with the ClonTech InFusion system. The vectors containing the mutated sequences were prepared as Miniprep and sequenced. After sequencing, the vectors containing the mutated sequences were prepared as Midiprep using the Promega PureYield™ Plasmid Midiprep System. HEK293T cells were grown in DMEM medium (Invitrogen), transfected with vectors using Invitrogen's Lipofectamine 2000 and incubated at 37° C. in a […] incubator for 48 hours prior to testing for transgene expression. The targeted amino acid mutations in the table 1 below are shown using numbering of SEQ ID NO: 1.
(§2) In order to define the epitopes of anti-CD39 antibodies, we designed CD39 mutants defined by substitutions of amino acids exposed at the molecular surface over the surface of CD39.
(§3) Mutant 5 contains amino acid substitutions at residues Q96, N99, E143 and R147.
(§4) Mutants were transfected in Hek-293T cells, as shown in the table 1, using numbering of SEQ ID NO: 1. […] Mutant 19 includes substitutions at residues R138, M139 and E142.
(§5) Mutants were transfected in Hek-293T cells, as shown in the table 1, using numbering of SEQ ID NO: 1. Dose-ranges of test antibodies (10-2.5-0.625-0.1563-0.0391-0.0098-0.0024-0.0006 μg/ml) are tested on the 20 generated mutants by flow cytometry.

[3] = target: T4, CD39 mutants (Table 1) expressed in Hek-293T cells; test: as above; conditions: mutant 5: Q96A, N99A, E143A, R147E
Description: as §1, §2, §3, §4, §5

[4] = target: T5, CD39 mutants (Table 1) expressed in Hek-293T cells; test: as above; conditions: mutant 15: K87A, E100A, D107A
Description: as §1, §2, §3, §4, §5

[5] = test system: CD39 mutants (Table 1) expressed in Hek-293T cells; test: as above; design: species or system human; conditions: remaining mutants of the 20 generated
Description: as §1, §2, §3, §4, §5

Row | Molecule | relative potency for inhibition of soluble CD39 (FIG. 2B) [1] | inhibition of the enzymatic (ATPase) activity of soluble CD39 protein [1] | potency and maximal inhibition of cellular CD39, comparison between antibodies (FIG. 2A) (cell-membrane bound CD39; compared with BY40) | inhibition of cell-membrane bound (cellular) CD39 ATPase activity (cell-membrane bound CD39) | binding to cells expressing mutant 19 of CD39 [2] | binding to cells expressing mutant 5 of CD39 [3] | binding to cells expressing mutant 15 of CD39 [4] | binding to the other CD39 mutants of Table 1 [5]
1 | B1 | followed by I-395 | inhibited the enzymatic activity of soluble CD39 protein; also recorded: inhibit soluble CD39 | greater potency and maximal inhibition of cellular CD39 compared to BY40; also recorded: greater potency at all concentrations as well as greater maximal inhibition of cellular CD39 compared to BY40 | inhibit cell-membrane bound CD39 | loss of binding | loss of binding | – | –
2 | B2 | lower potency | inhibited the enzymatic activity of soluble CD39 protein; also recorded: inhibit soluble CD39 | – | inhibit cell-membrane bound CD39 | – | – | loss of binding | without loss of binding to any of the other 20 mutants

From patent US20190218304A1, “POTENTIATING THE EFFECT OF ATP RELEASE” (INNATE PHARMA, priority 2017, published 2019)
